Measured values reported in publication PMC9911399, “Two distinct binding modes provide the RNA-binding protein RbFox with extraordinary sequence specificity”.
Residue numbers refer to the chain shown, from its start. The list shows a part of the results.

T1: RBFOX1 RRM (Homo sapiens, UniProt Q9NWB1 109-208)
T1 sequence: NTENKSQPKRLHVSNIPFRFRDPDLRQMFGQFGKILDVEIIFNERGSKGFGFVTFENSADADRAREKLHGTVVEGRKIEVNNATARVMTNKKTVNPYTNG

B1: CGAAACA (DNA:RNA)
RNA: GGGAGACCGGAAUUCAGAUUGUCCCGAAACAUUAAAUCCCGUCGUAGCCACCA
DNA 1: CAATCTGAATTCCGGTCTCCC
DNA 2: TGGTGGCTACGACGGGATT
B2: UCGGGAU (DNA:RNA)
RNA: GGGAGACCGGAAUUCAGAUUGUCCUCGGGAUUUAAAUCCCGUCGUAGCCACCA
DNA 1: CAATCTGAATTCCGGTCTCCC
DNA 2: TGGTGGCTACGACGGGATT
B3: UAAAUAU (DNA:RNA)
RNA: B2 RNA with C26A, G27A, G28A, G29U
DNA 1: CAATCTGAATTCCGGTCTCCC
DNA 2: TGGTGGCTACGACGGGATT
B4: CCUAUUC (DNA:RNA)
RNA: B1 RNA with G26C, A27U, A29U, C30U, A31C
DNA 1: CAATCTGAATTCCGGTCTCCC
DNA 2: TGGTGGCTACGACGGGATT
B5: CACCUGG (DNA:RNA)
RNA: B1 RNA with G26A, A27C, A28C, A29U, C30G, A31G
DNA 1: CAATCTGAATTCCGGTCTCCC
DNA 2: TGGTGGCTACGACGGGATT
B6: CAGCUUU (DNA:RNA)
RNA: B2 RNA with U25C, C26A, G28C, G29U, A30U
DNA 1: CAATCTGAATTCCGGTCTCCC
DNA 2: TGGTGGCTACGACGGGATT
B7: CCUCCGA (DNA:RNA)
RNA: B1 RNA with G26C, A27U, A28C, A29C, C30G
DNA 1: CAATCTGAATTCCGGTCTCCC
DNA 2: TGGTGGCTACGACGGGATT
B8: UGGUUGC (DNA:RNA)
RNA: B2 RNA with C26G, G28U, G29U, A30G, U31C
DNA 1: CAATCTGAATTCCGGTCTCCC
DNA 2: TGGTGGCTACGACGGGATT
B9: ACAACGA (DNA:RNA)
RNA: B1 RNA with C25A, G26C, A29C, C30G
DNA 1: CAATCTGAATTCCGGTCTCCC
DNA 2: TGGTGGCTACGACGGGATT
B10: UAUGCAU (DNA:RNA)
RNA: B2 RNA with C26A, G27U, G29C
DNA 1: CAATCTGAATTCCGGTCTCCC
DNA 2: TGGTGGCTACGACGGGATT
B11: GAGGAUG (DNA:RNA)
RNA: B2 RNA with U25G, C26A, G29A, A30U, U31G
DNA 1: CAATCTGAATTCCGGTCTCCC
DNA 2: TGGTGGCTACGACGGGATT
B12: GAUACCG (DNA:RNA)
RNA: B1 RNA with C25G, G26A, A27U, A29C, A31G
DNA 1: CAATCTGAATTCCGGTCTCCC
DNA 2: TGGTGGCTACGACGGGATT
B13: AGGGAGC (DNA:RNA)
RNA: B1 RNA with C25A, A27G, A28G, C30G, A31C
DNA 1: CAATCTGAATTCCGGTCTCCC
DNA 2: TGGTGGCTACGACGGGATT
B14: UUUUGCA (DNA:RNA)
RNA: B1 RNA with C25U, G26U, A27U, A28U, A29G
DNA 1: CAATCTGAATTCCGGTCTCCC
DNA 2: TGGTGGCTACGACGGGATT
B15: GCUAUCU (DNA:RNA)
RNA: B1 RNA with C25G, G26C, A27U, A29U, A31U
DNA 1: CAATCTGAATTCCGGTCTCCC
DNA 2: TGGTGGCTACGACGGGATT
B16: CGAUGGC (DNA:RNA)
RNA: B1 RNA with A28U, A29G, C30G, A31C
DNA 1: CAATCTGAATTCCGGTCTCCC
DNA 2: TGGTGGCTACGACGGGATT
B17: UGGCAUA (DNA:RNA)
RNA: B1 RNA with C25U, A27G, A28C, C30U
DNA 1: CAATCTGAATTCCGGTCTCCC
DNA 2: TGGTGGCTACGACGGGATT
B18: UCGUGUU (DNA:RNA)
RNA: B2 RNA with G28U, A30U
DNA 1: CAATCTGAATTCCGGTCTCCC
DNA 2: TGGTGGCTACGACGGGATT
B19: AUACGAA (DNA:RNA)
RNA: B1 RNA with C25A, G26U, A28C, A29G, C30A
DNA 1: CAATCTGAATTCCGGTCTCCC
DNA 2: TGGTGGCTACGACGGGATT
B20: UAACUGG (DNA:RNA)
RNA: B1 RNA with C25U, G26A, A28C, A29U, C30G, A31G
DNA 1: CAATCTGAATTCCGGTCTCCC
DNA 2: TGGTGGCTACGACGGGATT
B21: GCCUGCA (DNA:RNA)
RNA: B1 RNA with C25G, G26C, A27C, A28U, A29G
DNA 1: CAATCTGAATTCCGGTCTCCC
DNA 2: TGGTGGCTACGACGGGATT
B22: CAUUUGU (DNA:RNA)
RNA: B1 RNA with G26A, A27U, A28U, A29U, C30G, A31U
DNA 1: CAATCTGAATTCCGGTCTCCC
DNA 2: TGGTGGCTACGACGGGATT
B23: AUUCGCG (DNA:RNA)
RNA: B1 RNA with C25A, G26U, A27U, A28C, A29G, A31G
DNA 1: CAATCTGAATTCCGGTCTCCC
DNA 2: TGGTGGCTACGACGGGATT
B24: GCAAACG (DNA:RNA)
RNA: B1 RNA with C25G, G26C, A31G
DNA 1: CAATCTGAATTCCGGTCTCCC
DNA 2: TGGTGGCTACGACGGGATT
B25: AAGACCG (DNA:RNA)
RNA: B1 RNA with C25A, G26A, A27G, A29C, A31G
DNA 1: CAATCTGAATTCCGGTCTCCC
DNA 2: TGGTGGCTACGACGGGATT
B26: AAAAACC (DNA:RNA)
RNA: B1 RNA with C25A, G26A, A31C
DNA 1: CAATCTGAATTCCGGTCTCCC
DNA 2: TGGTGGCTACGACGGGATT
B27: UAUACCG (DNA:RNA)
RNA: B1 RNA with C25U, G26A, A27U, A29C, A31G
DNA 1: CAATCTGAATTCCGGTCTCCC
DNA 2: TGGTGGCTACGACGGGATT
B28: GGGGAGG (DNA:RNA)
RNA: B1 RNA with C25G, A27G, A28G, C30G, A31G
DNA 1: CAATCTGAATTCCGGTCTCCC
DNA 2: TGGTGGCTACGACGGGATT
B29: UUACACG (DNA:RNA)
RNA: B1 RNA with C25U, G26U, A28C, A31G
DNA 1: CAATCTGAATTCCGGTCTCCC
DNA 2: TGGTGGCTACGACGGGATT
B30: UUGCGUG (DNA:RNA)
RNA: B2 RNA with C26U, G28C, A30U, U31G
DNA 1: CAATCTGAATTCCGGTCTCCC
DNA 2: TGGTGGCTACGACGGGATT
B31: UGCGAGA (DNA:RNA)
RNA: B1 RNA with C25U, A27C, A28G, C30G
DNA 1: CAATCTGAATTCCGGTCTCCC
DNA 2: TGGTGGCTACGACGGGATT

target: T1, RBFOX1 RRM; assay: EMSA; HiTS-Eq, 1 nM pool, 10 min; buffer printed only for the single-RNA assays: 10 mM Tris pH 7.5, 150 mM NaCl, 3.4 mM EDTA, 0.001% NP-40, 30 C; conditions: tags: His6 N-terminal (pET28a); label: 5' 32P
In short: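 Purified RbFox RRM, wild type or mutant, was incubated for 10 min in 50 µL with 1 nM of a 5′-radiolabelled RNA pool carrying 7 randomized nucleotides, whose flanks were annealed to DNA oligonucleotides, over a series of increasing protein concentrations. Unbound RNA was resolved on 8% native PAGE, cut out, reverse-transcribed, barcoded by PCR and sequenced on an Illumina HiSeq 2500. Relative association constants were derived from changes in read counts for each RNA species versus the control reaction and normalised to the cognate motif.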

| Binder | binding signal |
| --- | --- |
| B1 | 0.00327 KA relative to UGCAUGU |
| B2 | 0.0283 KA relative to UGCAUGU |
| B3 | 0.00578 KA relative to UGCAUGU |
| B4 | 0.00347 KA relative to UGCAUGU |
| B5 | 0.00866 KA relative to UGCAUGU |
| B6 | 0.0065 KA relative to UGCAUGU |
| B7 | 0.00601 KA relative to UGCAUGU |
| B8 | 0.0455 KA relative to UGCAUGU |
| B9 | 0.00357 KA relative to UGCAUGU |
| B10 | 0.0145 KA relative to UGCAUGU |
| B11 | 0.0147 KA relative to UGCAUGU |
| B12 | 0.00627 KA relative to UGCAUGU |
| B13 | 0.0228 KA relative to UGCAUGU |
| B14 | 0.0266 KA relative to UGCAUGU |
| B15 | 0.0105 KA relative to UGCAUGU |
| B16 | 0.0149 KA relative to UGCAUGU |

| Binder | binding signal |
| --- | --- |
| B17 | 0.0137 KA relative to UGCAUGU |
| B18 | 0.0182 KA relative to UGCAUGU |
| B19 | 0.00544 KA relative to UGCAUGU |
| B20 | 0.0109 KA relative to UGCAUGU |
| B21 | 0.0378 KA relative to UGCAUGU |
| B22 | 0.0108 KA relative to UGCAUGU |
| B23 | 0.0127 KA relative to UGCAUGU |
| B24 | 0.00487 KA relative to UGCAUGU |
| B25 | 0.00753 KA relative to UGCAUGU |
| B26 | 0.000205 KA relative to UGCAUGU |
| B27 | 0.00193 KA relative to UGCAUGU |
| B28 | 0.025 KA relative to UGCAUGU |
| B29 | 0.00981 KA relative to UGCAUGU |
| B30 | 0.0447 KA relative to UGCAUGU |
| B31 | 0.0189 KA relative to UGCAUGU |
